# Experimental data published in PubChem BioAssay AID624296 (National Center for Advancing Translational Sciences (NCATS), 2012).
# Out of some 350,000 compounds screened, about 9,900 (2.8%) were called active. The inconclusive results got no clear call from the source; some entries with a clear call stand among them for comparison. Calls follow the shape of the dose curve; as a rule, active = well fitted activation curve with a large enough effect; inconclusive = small, poorly fitted or top-dose-only effect; inactive = no such curve, though single readings can be large or run the other way. No potency is given beside an inconclusive call; the fits are too rough.
# Test: A quantitative high throughput screen for small molecules that induce DNA re-replication in MCF 10a normal breast cells. Also: nearly all actives have a fitted effect of over 50% in size. As to activity, positive = re-replication: % of control where 0% means no effect.
# Conditions: MCF 10A DNA re-replication, Hoechst nuclear intensity, 48 h; activity, positive = re-replication: at 46.1 µM (top of the series)
# Potency is read from the fitted curve at half-maximal effect; tags tell the direction and shape of the fitted curve.
Compound,Potency,"activity, positive = re-replication"
Cc1cccc(NS(=O)(=O)c2cc(C(=O)N3CCc4ccccc4C3)ccc2Cl)c1C,"inconclusive [activator, single point]",
Cc1ccc(S(=O)(=O)C(C#N)c2nc3ccccc3nc2N2CCCC2)cc1C (stereo not drawn),"inconclusive [activator, partial curve, poor fit]",
O=S(=O)(c1ccccc1)c1cnc(-c2ccccc2)nc1N1CCCC1,"inconclusive [activator, single point]",
COC(=O)c1ccc(C)c(NS(=O)(=O)c2ccc(C)c([N+](=O)[O-])c2)c1,"inconclusive [activator, full curve]",
COc1ccc(CN(C)c2ncnc3sccc23)c(OC)c1OC,"inconclusive [activator, single point]",
COc1ccc(-c2ccc(NS(=O)(=O)c3ccc([N+](=O)[O-])cc3)cc2)nn1,"inconclusive [activator, full curve, poor fit]",
COc1ccc(S(=O)(=O)Nc2c(C(=O)O)[nH]c3ccc(OC)cc23)cc1,"inconclusive [activator, single point]",
COCC1CCCN(C(=O)c2cc(COc3ccc(C(C)=O)cc3)on2)C1 (stereo not drawn),,inactive: 11.2%
Cc1cc(-c2cccs2)c(C#N)c(=S)[nH]1,"inconclusive [activator, partial curve, poor fit]",
COc1ccc(S(=O)(=O)N(C(=O)c2ccco2)c2cc3sc(=O)oc3c3ccccc23)cc1,active: 18.4 µM,
O=C(OCCC12CC3CC(CC(C3)C1)C2)c1ccc(NCc2cc(O)ccc2O)cc1,"inconclusive [activator, partial curve]",
Cc1[nH]c2ccccc2c1NC(=O)CN1CCN(C(=O)c2ccco2)CC1,"inconclusive [activator, single point]",
CN(C)c1nc2ccccc2c(N)c1-c1ccccc1,"inconclusive [activator, single point]",
COc1cc(CN2CCNC(=O)C2CC(=O)NCCC2=CCCCC2)cc(OC)c1 (stereo not drawn),"inconclusive [activator, partial curve]",
CC1CN(C2CCCCC2)C(=O)NC1=O (stereo not drawn),,inactive: 3.03%
CCCc1ccc(OCC(O)CN2CCN(CCO)CC2)cc1 (stereo not drawn),"inconclusive [activator, single point]",
Cc1ccccc1CSc1nnc(-c2ccco2)n1Cc1ccco1,"inconclusive [activator, partial curve, poor fit]",
Cc1ccccc1NC(=O)c1ccc2nc(N3CCOCC3)sc2c1,"inconclusive [activator, full curve, poor fit]",
CC(=O)c1cccc(S(=O)(=O)N2CCCC(c3nc4c(nnn4Cc4ccc(C)cc4)c(=O)[nH]3)C2)c1 (stereo not drawn),,inactive: -8.62%
Cc1ccc2c(c1)N(C(=O)CCC(=O)O)CCO2,"inconclusive [activator, single point]",
Cc1ccc(CCNS(=O)(=O)c2cc3c(cc2Cl)NC(=O)CO3)cc1,,inactive: 1.07%
COc1ccc(-n2c(N)c(Br)c(=O)[nH]c2=O)cc1,"inconclusive [activator, partial curve, poor fit]",
CCn1ncc(Br)c1C(=O)Nc1ccc(-c2ccno2)cc1,"inconclusive [activator, partial curve, poor fit]",

Compound,Potency,"activity, positive = re-replication"
Cn1cnc(C(=O)N2CCc3ccccc3C2)c1C(=O)N1CCc2ccccc2C1,,inactive: 0.533%
O=c1cc(N2CCCCC2)c(-c2ccccc2)nn1Cc1ccc(Cl)cc1Cl,active: 14.6 µM,
CC(C)(C)c1ccc(-c2noc(-c3ccno3)n2)cc1,"inconclusive [activator, partial curve, poor fit]",
C=C(C)CSc1[nH]c(=O)cc(C)c1C#N,"inconclusive [activator, single point]",
CN1CCN(C(=O)c2ccc3c(c2)N(Cc2ccccc2)CCS3)CC1,,inactive: 5.07%
COc1ccc(NCc2nc3ccccc3n2CCOc2ccc(C)cc2)cc1,active: 20.6 µM,
COc1ccc(C(=O)/C=C/C(=O)N(Cc2ccc3c(c2)OCO3)C(C(=O)NC2CCCCC2)c2ccncc2)c(O)c1 (stereo not drawn),"inconclusive [activator, partial curve, poor fit]",
S=c1[nH]nc(-c2ccncc2)n1/N=C/c1ccccc1,,inactive: 29.2%
Nc1ccc(SC(F)(F)F)cc1,"inconclusive [activator, partial curve, poor fit]",
N#Cc1nc(-c2ccco2)oc1NCc1cccnc1,"inconclusive [activator, partial curve, poor fit]",
CCN(CC)c1ccc(S(=O)(=O)N2CCOCC2)cc1NC(=O)COC(=O)/C=C/c1ccc(C)o1,"inconclusive [activator, single point]",
O=C(c1cccc(Cl)c1)N1CCC2CC1c1cc(-c3ccc(F)cc3)ccc12 (stereo not drawn),"inconclusive [activator, partial curve, poor fit]",
CCN(c1ccccc1)S(=O)(=O)c1ccc(Cl)c(C(=O)OCC(=O)c2[nH]c(C)c(C(C)=O)c2C)c1,"inconclusive [activator, partial curve, poor fit]",
CCc1ccc(OCCOC(=O)Nc2ccccc2)cc1,"inconclusive [activator, partial curve, poor fit]",
O=S(=O)(O)c1ccc(N2N=C(c3ccccc3)CC2c2ccccc2)cc1 (stereo not drawn),,inactive: 15.2%
Cc1cc(C)n(-c2nc3ccccc3nc2Nc2ccc3c(c2)OCO3)n1,active: 16.4 µM,
NC(=O)COc1ccc(C(=O)/C=C2/C(=O)Nc3ccccc32)cc1,"inconclusive [activator, single point]",
CC(C)n1cc(NC(=O)c2cc(-c3ccccc3)on2)cn1,active: 3.66 µM,
Cc1cccc(NC(=O)NC(C)CCc2ccccc2)c1 (stereo not drawn),,inactive: 9.99%
Cc1ccc(OCC(=O)OC(C)CN2CCCCC2)cc1 (stereo not drawn),active: 1.03 µM,
Cc1cccc(C)c1NC(=O)COC(=O)/C=C/c1ccc(S(=O)(=O)N2CCOCC2)cc1,,inactive: -8.59%
O=C(C1COc2ccccc2O1)N1CCN(S(=O)(=O)c2cc(F)ccc2F)CC1 (stereo not drawn),,inactive: -1.78%
CCOc1ccc(C(=O)Nc2cccc3cccnc23)cc1,"inconclusive [activator, single point]",

Compound,Potency,"activity, positive = re-replication"
COCCn1nc2cc(C(=O)NCC34CC5CC(CC(C5)C3)C4)ccc2c1OC,,inactive: -4.76%
COC(=O)[C@@]12CCCCN1[C@H](c1ccc(-c3ccc(C(C)=O)cc3)cc1)[C@H]1C(=O)N(C)C(=O)[C@H]12,,inactive: -22.2%
CCc1nn(CC(=O)NCCCN2CCOCC2)c(=O)c2cc3cc(F)ccc3n12,"inconclusive [activator, full curve, poor fit]",
CC1CCN(C(=O)Nc2cccc(NC(=O)N3CCC(C)CC3)c2)CC1,"inconclusive [activator, full curve, poor fit]",
COc1ccccc1NC(=O)C1=C(C)NC2=C(C(=O)CC(c3ccc(OC)c(OC)c3)C2)C1c1coc2ccccc2c1=O (stereo not drawn),inactive,
CCOc1ccccc1N(CC(=O)NCC1CCCO1)C(=O)CCC(=O)Nc1nccs1 (stereo not drawn),,inactive: -2.22%
COc1cc(/C=N/Nc2nc3ccccc3s2)ccc1O,"inconclusive [activator, single point]",
COc1ccc(NS(=O)(=O)c2ccc3ccccc3c2)c2ncccc12,"inconclusive [activator, single point]",
Clc1ccc2c(c1)C(C1=NCCN1)c1ccccc1CS2 (stereo not drawn),active: 1.64 µM,
Clc1ccccc1CN(Cc1ccco1)Cc1nnnn1C1CCCC1,"inconclusive [activator, partial curve, poor fit]",
CN1CCN(C(=O)c2ccccc2N(Cc2ccccc2)S(C)(=O)=O)CC1,,inactive: 1.9%
O=Cc1[nH]c2ccccc2c1N(C(=O)CCl)c1ccc([N+](=O)[O-])cc1,"inconclusive [activator, single point]",
CC(C)(C)c1ccc(C(=O)Oc2ccc3c(c2)OCC3=O)cc1,"inconclusive [activator, single point]",
COc1ccc(-c2cc(-c3ccc(OC)c(OC)c3)n[nH]2)c(O)c1,"inconclusive [activator, partial curve, poor fit]",
CCCCC(CC)CNC(=O)c1cc2ccccc2c(=O)o1 (stereo not drawn),"inconclusive [activator, full curve, poor fit]",
CCOC(=O)c1c(C)n(C)c2ccc(OC)c(NC(=O)CN3CCN(C(=O)c4ccco4)CC3)c12,"inconclusive [activator, single point]",
COc1cc(-c2nnc3sc(-c4cccs4)nn23)cc(OC)c1OC,"inconclusive [activator, full curve, poor fit]",
Nc1ccccc1SCc1cn2ccccc2n1,,inconclusive: 101% [activator]
CN(C)C=Nc1ccc(Cl)c(Cl)c1,"inconclusive [activator, single point]",
CC(C)N(C(=O)[C@H]1C[C@H](CC(=O)NC(C)(C)C)C(=O)N2CCc3c([nH]c4cc(CCC(=O)N(C)C)ccc34)[C@]12C)C(C)C,"inconclusive [activator, full curve, poor fit]",
Cc1cccc(-n2ncc3c(N4CCCc5ccccc54)ncnc32)c1,active: 11.6 µM,
COc1cc(S(=O)(=O)N2CCC(C(N)=O)CC2)c(C)cc1C,,inactive: -4.29%
